Data on 167 variants can be found in the RNAGym collection of RNA variant scans (doi:10.7554/elife.90254).

The source gives no read counts; variants with many changes may rest on few reads.

To fix the notation:
B1: OR4K15 (parent)
chain: GUUAACGGUCAUAGGCCAUGGAAACUAGGAGCACCAUUUCGCUGCCAGUGAAGAAAUGAACAAAGAAAAUCUGGGCCAGGCAGGCAUCAAAAGAAAUAGUCUUGCGCUCAACCAGAAAGUCUGUAAUCAUUUUAAGGGUA

Variants of B1 are the subject of the series. Kind of series: self-cleavage, relative activity (ratio to wild type); higher = more cleavage; in vitro, sequencing; the parent is a self-cleaving ribozyme.
For A24G A94G A111G, the self-cleavage worked out at 0.01.
Next, A24G A33G U70C A117G: 0.26.
As for U26C A91G A94G, the self-cleavage was 1.21.
Consider A24C U43A C76U A92G U100C, for which the self-cleavage worked out at 0.05.
For A24U U70A A98G, the self-cleavage was found to be 0.23.
Next, A24G A78U U130C: 0.11; A24G A27G A55G: 0.71; A24G C46U A59G U133C: 1.23.
Take A24U U43C A63C A78G A114U: the self-cleavage is 0.05.
With C25U A92U A96G, the self-cleavage amounted to 1.71.
Turning to U26C G65A A68G, the self-cleavage was 1.19.
Take A24G U100A U131C: the self-cleavage is 0.73.
In the case of A24U A47G A63G U72C A94G, the self-cleavage came out at 0.34.
For the variant A24G A69G G74A A78G, the self-cleavage was 0.27.
U26C A36G U72C: the self-cleavage worked out at 0.2.
For A24U A56U G119A, the self-cleavage stood at 1.17.
Next, A24G A64G A95G: 0.92.
For the variant U26C A60G A63U A111G, the self-cleavage was 0.05.
A24G A52C A54G: the self-cleavage came to 0.94.
Next, U26C A30G A64G G106A: 0.04.
For the variant U26C A30G A86G, the self-cleavage was determined as 1.75.
Regarding C25A A69U A117U U132C, the self-cleavage was 0.55.
As to U26C A82G A111G, the self-cleavage amounted to 0.04.
Regarding A24G A62U A140U, the self-cleavage is 1.17.
With A24G U39C A51C U124A the figure was 0.52; with A24G U38C A140G, 1.84.
Turning to A24G U37C U38C, the self-cleavage was determined as 1.82.
In the case of C25G A51G A68G A117G U120C, the self-cleavage came out at 0.85.
As to A24U U39C A82G A111U, the self-cleavage came to 0.08.
Turning to U26C U39A A54G A56G A114G, the self-cleavage was determined as 0.34.
Turning to A24G A59C U102C, the self-cleavage was determined as 0.96.
As to U26A A47U U49C A54G A60U, the self-cleavage is 0.41.
For the variant A24G A47U U102C A135U, the self-cleavage was determined as 1.2.
With U26C A52G A54G A55G A59U A62U A116G U122C, the self-cleavage came to 0.05.
Next, A24C U49C A60C U72C A90G: 0.21.
As to A24G U49A U127A, the self-cleavage turned out to be 1.94.
Take A24G A52U A89G U120A: the self-cleavage amounted to 1.02.
Consider A24G A60C A66G U102G, for which the self-cleavage came to 0.76.
Take A24U A69G A78G A117G: the self-cleavage stood at 0.06.
With A24G A54G A64G the figure was 1.35.
Take A24G A60U U87C: the self-cleavage was 1.07.
On to A24G A36G A67G, for which the self-cleavage amounted to 0.93.
Take A24G U38C U43A A54G U103A: the self-cleavage was 0.37.
Consider A24G A68G A69G U100C, for which the self-cleavage is 1.37.
On to A24U A30G A94G, for which the self-cleavage stood at 1.13.
Next, C25A A60G U108C A118G: 0; A24G A56G U103A: 0.37.
As for A24G C46U A47G, the self-cleavage was determined as 0.63.
With A24U G83A A95G A96G, the self-cleavage was 2.4.
For A24G A30G A54G A59G U87A, the self-cleavage worked out at 1.64.
With U26C A118U U132A, the self-cleavage is 0.13.
With A24G A62G U102C the figure was 1.74.
As for A24G U26C U127A, the self-cleavage came to 1.61.
Take A24G U57C A116G U122C A126G: the self-cleavage was determined as 0.28.
In the case of U26A U39C A62U A86G U122C, the self-cleavage is 1.26.
Take U26C A47G A64G U70C A126G U131C: the self-cleavage was found to be 0.13.
With A24U A110G U122C the figure was 0.09; with U26C U38A U43A G50C A116G, 1.01.
On to A24G A30G U124C U127C, for which the self-cleavage turned out to be 0.69.
In the case of A24C A110G U130C, the self-cleavage is 0.05.
A24U G79A C107A U120A: the self-cleavage is 0.01.
As for A24G A51U A68G, the self-cleavage came to 1.36.
With U26C U87C A89G A91G U103C G119A U130C the figure was 0.03; with U26C A33G A55G A66G A69G A95G, 1.54.
As to A24G U38C A69G, the self-cleavage is 1.99.
Turning to A24U A30G U127C, the self-cleavage is 0.57.
Take A24G A60G U131C: the self-cleavage was determined as 1.71.
With A24G A36G G44A A64G G106A A118G, the self-cleavage was 0.01.
With U26C U43C A98G U122C, the self-cleavage was 0.16.
Regarding A24G A66U A92U, the self-cleavage came out at 1.5.
With A24G A91G A116G the figure was 1.03; with A24G A33C A56G, 0.44.
As to A24G U57C A95G U130C, the self-cleavage amounted to 1.36.
Next, U26C U57G A63G A118G U131C: 0.86; A24C A86G U103C A111G U120A U127C: 0; A24G C40U A68C A118G: 2.05.
Regarding A24G U38A A63G, the self-cleavage amounted to 0.21.
On to A24G C34U U57C A60G U87A U103C U108C A116G, for which the self-cleavage turned out to be 0.01.
Take A24U U108C A140G: the self-cleavage was 0.
With A24G U37C A90C A125G A126G U132C the figure was 0.41; with A24C A94G U100C U132C, 1.69.
With A24U A66G U102C the figure was 1.1; with A24G A67G U102C, 1.26.
Turning to U26A A67G U72A A96G U108C, the self-cleavage turned out to be 0.01.
With U26C A52G A86G C101U A117G A135G, the self-cleavage was 0.03.
Regarding A24G A64U A90G C105U, the self-cleavage was found to be 0.34.
As to A24U A64G A92G, the self-cleavage was found to be 1.15.
Turning to A24U A52G A56C A59G, the self-cleavage worked out at 0.78.
As to U26C U43A A47G U57C A69G U70C U97C, the self-cleavage amounted to 0.11.
A24G A94G A114G A116G: the self-cleavage amounted to 0.06.
Turning to A24U A78G A110C U130C, the self-cleavage is 0.08.
Regarding A24G A98G A116G U124A, the self-cleavage stood at 0.5.
Consider A24G A51U A98G U102C, for which the self-cleavage is 1.04.
As for A24G G29A A56G A59G A60G A95G, the self-cleavage was 1.71.
As for A24G A47U U49C U120C, the self-cleavage came to 0.28.
Next, U26A U38A A114U U132C: 0.01; U26C A95G A117G U127C: 2.27.
Take A24G A63G U122C: the self-cleavage stood at 0.57.
As for A24G A56G U87A U102C U127C, the self-cleavage is 0.79.
For the variant A24U A96U A111G, the self-cleavage was 0.04.
Consider C25A C46U A54G A135G, for which the self-cleavage stood at 1.48.
A24G A33U A91G: the self-cleavage turned out to be 0.88.
U26C A47G A78U: the self-cleavage was 0.37.
Next, A24G U38A A68G: 1.27.
As for C25A U37C A52G U57C U133A, the self-cleavage amounted to 1.95.
Consider U26C U57C A82U A96G U124C, for which the self-cleavage was 0.19.
Regarding A24G A68U A82G A117G U133C, the self-cleavage came out at 0.77.
As to A24G G84A A111G A116U A118G U122C, the self-cleavage stood at 0.01.
In the case of A24G C35U A54G, the self-cleavage turned out to be 1.25.
As for A24G A62G A69G A92U, the self-cleavage was found to be 1.32.
A24G A94U A135G: the self-cleavage came out at 0.83.
For the variant U26A A27G U103C, the self-cleavage worked out at 0.79.
In the case of U26C U72C A91G, the self-cleavage is 0.11.
U26C U49C A56G A59G U103C A118G: the self-cleavage came to 0.08.
In the case of U26A A52G A62G U100C U132C, the self-cleavage was determined as 1.22.
With A24G C32A U37C A56U the figure was 0.41.
On to U26A A33G U122C, for which the self-cleavage came out at 0.32.
Regarding A24G A33G U102C, the self-cleavage was 1.11.
In the case of A24C A91G A96G U108C, the self-cleavage stood at 0.
As for U26C A36G U39C A126G U130C, the self-cleavage turned out to be 0.94.
Turning to A24G A78G A91U A140G, the self-cleavage stood at 0.14.
With A24G A36C U139C the figure was 1.5; with C25A U39C A62G, 2.02.
For the variant A24G C46U A60G G138U, the self-cleavage was 1.71.
For the variant A24G A52G U57A A68G A111G, the self-cleavage was 0.03.
As for A24G A67G A117G U122C, the self-cleavage was 1.96.
With A24G A90U A91G U103C the figure was 0.95; with A24G A54G A92U, 1.64; with U26C A51U A60G A91U, 0.
For the variant U26A A67G U87C G138A, the self-cleavage stood at 0.85.
With A24G A27G U43A A52G A66G U72A, the self-cleavage turned out to be 0.48.
On to U26C A51G A135U, for which the self-cleavage was 1.9.
Consider U26C U108C A117G U127C, for which the self-cleavage was found to be 0.
As to U26C A51U A116G, the self-cleavage came to 0.99.
In the case of A24G A68G G80U G106U G136A, the self-cleavage came to 0.
On to U26C C61U A90G, for which the self-cleavage was found to be 1.99.
In the case of A24G A27U U87C U127C, the self-cleavage is 0.23.
With A24U A54G A95G A126G the figure was 1.07; with U26A G44U A62G U130C, 0.4; with U26C A59G U103C A110G U127A, 0.05.
Next, A24G G48A A66U A91G: 0.35.
With A24G U133G G137U, the self-cleavage is 0.58.
Regarding U26C A89G U122A U132C, the self-cleavage was 0.72.
As for A24G A27U C61U A140U, the self-cleavage was found to be 2.44.
For the variant A24G U72C A95G, the self-cleavage stood at 0.26.
Turning to A24G A91G A126G, the self-cleavage came out at 0.54.
Consider C25U U49C A78U U102C, for which the self-cleavage is 1.31.
As to A24C U37C A96G, the self-cleavage turned out to be 1.16.
Turning to A24G U87C A91G U122C U132C, the self-cleavage was 0.54.
Next, A24U A110U A126G: 1.08.
Consider U26C A86G C121U, for which the self-cleavage was 1.26.
Consider A24G A55G U108C A135U, for which the self-cleavage turned out to be 0.02.
Next, C25U U43C A63G A82U A86U A114G: 0; A24G A67C C77U U102C: 1.98; U26C A91G A96G U132C: 1.56.
With A24U A66G A140G, the self-cleavage came out at 0.81.
With A24G A66G A67U U122C, the self-cleavage was 1.51.
As for A24G A69G U124A, the self-cleavage was found to be 1.13.
As to A24G U97A G106U, the self-cleavage was determined as 0.03.
For A24G A36G A47G A82C, the self-cleavage was determined as 0.03.
A24G A52C A82G: the self-cleavage came out at 0.23.
As for A24G U43A A56G A82C, the self-cleavage was found to be 0.36.
Consider A24G A27G U39C A63G A92G U127C, for which the self-cleavage worked out at 0.4.
For the variant A24G A78G A82G U102A, the self-cleavage came out at 0.19.
Consider A24G A33G U49A U70C, for which the self-cleavage stood at 0.49.
Regarding U26A U37C A125G, the self-cleavage is 0.55.
For A24G A27U A55G A62G U97C, the self-cleavage amounted to 0.43.
